Assay results from the supplement of paper PMC12217912.
This is one part of the list. Sequences were assembled here from the parent chain. Values near 0.05 are background.

B1: TEV protease; numbered along this chain (parent)
chain: MGESLFKGPRDYNPISSSICHLTNESDGHTTSLYGIGFGPFIITNKHLFRRNNGTLVVQSLHGVFKVKDTTTLQQHLVDGRDMIIIRMPKDFPPFPQKLKFREPQREERICLVTTNFQTKSMSSMVSDTSCTFPSGDGIFWKHWIQTKDGQCGSPLVSTRDGFIVGIHSASNFTNTNNYFTSVPKNFMELLTNQEAQQWVSGWRLNADSVLWGGHKVFMVKPEEPFQPVKEATQL

Variants of: B1
Assay: raw area under fraction-flipped curve 0-4 h after induction (AUC4h, not background-subtracted), DNA-recorder readout of cleavage of the substrate (dimensionless); higher = more cleavage of the substrate by the protease variant
Conditions: temperature: 34 °C; time window: 0-4 h after rhamnose induction
Procedure: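 In vivo DNA recorder in E. coli TOP10(DE3) ΔrhaA at 34 °C. Each TEVp single-site mutant (parent TEVp 0) is paired with a single-site variant of the 7-mer TEVs (canonical ENLYFQ|S). The substrate sits between flexible linkers in a Bxb1-sfGFP-TEVs-SsrA fusion, so cleavage stabilises Bxb1 and speeds flipping of a recombination array, read by NGS. The value is the raw area under the fraction-flipped curve over 0-4 h after rhamnose induction (AUC4h), with ≥20 reads per time point. It is not background-subtracted; inactive controls average about 0.047.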
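Note: Bxb1 expression induced with 0.2% (w/v) L-rhamnose at OD600 near 0.5, cultures sampled hourly, flipped fraction per protease–substrate barcode pair counted by paired-end Illumina sequencing.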

Variant	area with substrate ENLYAQS	area with substrate ENLYCQS	area with substrate ENLYEQS	area with substrate ENLYGQS	area with substrate ENLYHQS	area with substrate ENLYIQS	area with substrate ENLYKQS	area with substrate ENLYMQS	area with substrate ENLYNQS	area with substrate ENLYRQS	area with substrate ENLYSQS	area with substrate ENLYTQS	area with substrate ENLYVQS	area with substrate ENLYWQS	area with substrate ENLYPQS	area with substrate ENLYYQS	area with substrate ENLYDQS	area with substrate ENLYLQS	area with substrate ENLYQQS
MGESLFKGPRDYNPISSSICHLTNESDGHTTSLYGIGFGNFIITNKHLFRRNNGTLVVQSLHGVFKVKDTTTLQQHLVDGRDMIIIRMPKDFPPFPQKLKFREPQREERICLVTTNFQTKSMSSMVSDTSCTFPSGDGIFWKHWIQTKDGQCGSPLVSTRDGFIVGIHSASNFTNTNNYFTSVPKNFMELLTNQEAQQWVSGWRLNADSVLWGGHKVFMVKPEEPFQPVKEATQL [P40N]	0.0783	0.101	0.0627	0.0702	0.0629	0.154	0.0143	0.0843	0.0649	0.077	0.088	0.0805	0.151	0.0822					
MGESLFKGPRDYNPISSSICHLTNESDGHTTSLYGIGFGPFIITNKHLFRRNNGTLVVQSLHGVFKVKDTTTLQQHLVDGRDMIIIRMPKDFSPFPQKLKFREPQREERICLVTTNFQTKSMSSMVSDTSCTFPSGDGIFWKHWIQTKDGQCGSPLVSTRDGFIVGIHSASNFTNTNNYFTSVPKNFMELLTNQEAQQWVSGWRLNADSVLWGGHKVFMVKPEEPFQPVKEATQL [P93S]	0.0684	0.0841		0.0715	0.0701		0.0603	0.0657		0.0566	0.0832	0.0458	0.115		0.0615	0.0574			
MGESLFKGPRDYNPISSSICHLTNESDGHTTSLYGIGFGPFIITNKHLFRRNNGTLVVQSLHGVFKVKDTTTLQQHLVDGRDMIIIRMPKDFPPFPQKLKFREPQREERICLVTTNFQTKSMSSMVSATSCTFPSGDGIFWKHWIQTKDGQCGSPLVSTRDGFIVGIHSASNFTNTNNYFTSVPKNFMELLTNQEAQQWVSGWRLNADSVLWGGHKVFMVKPEEPFQPVKEATQL [D128A]	0.0893		0.118	0.0868	0.0665	0.136	0.0543	0.101	0.0844	0.0632		0.0874	0.164		0.0816	0.0638	0.0672		
MGESLFKGPRDYNPISSSICHLTNESDGHTTSLYGIGFGPFIITNKHLFRRNNGTLVVQSLHGVFKVKDTTTLQQHLVDGRDMIIIRMPKDFPPFPQKLKFRGPQREERICLVTTNFQTKSMSSMVSDTSCTFPSGDGIFWKHWIQTKDGQCGSPLVSTRDGFIVGIHSASNFTNTNNYFTSVPKNFMELLTNQEAQQWVSGWRLNADSVLWGGHKVFMVKPEEPFQPVKEATQL [E103G]	0.0795		0.0728	0.0677	0.0589	0.118	0.0565	0.0772	0.0696	0.0384	0.0661	0.075	0.0716	0.0689	0.0683	0.0665	0.064	0.0798	0.0544
MGESLFKGPRDYNPISSSICHLTNESDGHTTSLYGIGFGPFIITNKHLFRRNNGTLVVQSLHGVFKVKDTTTLQQHLVDGRDMIIIRMPKDFPPFPQKLKFREPQREERICLVTTNFQTKSMSSMVSDTSCTFPSGDGIFWKHWIQTKDGQCGSPLVSTRDGFIVGIHSASNFTNTNNYFTSVPKNFMELLQNQEAQQWVSGWRLNADSVLWGGHKVFMVKPEEPFQPVKEATQL [T192Q]	0.0904	0.154	0.0615	0.0535	0.0798	0.101	0.054	0.0848	0.0804	0.0642	0.075	0.0747		0.0833	0.0555	0.0587	0.0547	0.0888	0.0592
MGESLFKGPRDYNPISSSICHLTNESDGHTTSLYGIGFGPFIITNKHLFRRNNGTLVVQSLHGVFKVKDTTTLQQHLVDGRDMIIIRMPKDFPPFPQKLKFREPQREERICLVTTNFQTKSMSSMVSDTSCTFPSGDGIFWKHWIQTKDGQCGSPLVSTRDGFIVGIHSASNFTNTNNYFTSVPKNFMELLHNQEAQQWVSGWRLNADSVLWGGHKVFMVKPEEPFQPVKEATQL [T192H]	0.061			0.0653	0.0517	0.116	0.0497		0.0545	0.0488	0.0682	0.0784	0.132		0.0742		0.0667		
MGESLFKGPRDYNPISSSICHLTNESDGHTTSLYGIGFGPFIITNKHLFRRNNGTLVVQSLHGVFKVKDTTTLQQHLVDGRDMIIIRMPKDFPPFPQKLKFREPQREERICLVTTNFQTKSMSSMVSDTSCTFPSGDGIFWKHWIQTKDGQCGSPLVSTRDGFIVGIQSASNFTNTNNYFTSVPKNFMELLTNQEAQQWVSGWRLNADSVLWGGHKVFMVKPEEPFQPVKEATQL [H168Q]	0.0629	0.0656	0.0679		0.0574	0.0825	0.0621	0.0477	0.0635	0.0649					0.0571	0.0648	0.0569		
MGESLFKGPRDYNPISSSICHLTNESDGHTTSLYGIGFGPFIITNKHLFRRNNGTLVVQSLHGVFKVKDTTTLQQHLVDGRDMIIIRMPKDFPPFPQKLKFREPQREERICLVTTNFQTKSMSSMVSDTSCTFPSGDGIFWKHWIQTKDGQCGSPLVSTRDGFIVGIHSASNFTNTNNYFTSVLKNFMELLTNQEAQQWVSGWRLNADSVLWGGHKVFMVKPEEPFQPVKEATQL [P184L]	0.0624	0.0486	0.0563	0.0524	0.0845	0.0579	0.0628	0.0558	0.0575		0.0585			0.08	0.0571	0.0444	0.0561	0.0462	0.0574
MGESLFKGPRDYNPISSSICHLTNESDGHTTSLYGIGFGPFIITNKHLFRRNNGTLVVQSLHGVFKVKDTTTLQQHLVDGRDMIIIRMPKDFPPFPQKLKFREPQREERICLVTTNFQTKSMSSMVSDTSCTFPSGDGIFWKHWIQTKDGQCGSPLVSTRDGFIVGIHSASNFTNTNNYFTSVCKNFMELLTNQEAQQWVSGWRLNADSVLWGGHKVFMVKPEEPFQPVKEATQL [P184C]	0.0567	0.0981	0.0653	0.0674		0.105	0.0532	0.075	0.0721	0.067		0.0792		0.0834	0.0519				0.0732
